# Assay results: the supplement of paper PMC8728848
# Some of the results follow.
# Columns and labels:
# Assay in all cases: glycan array binding signal (z-score within array); higher = stronger binding
# Conditions in all cases: glycan notation: IUPAC condensed, linker removed
# [1] = biological target: Gal(a1-3)Gal(b1-3)GlcNAc(b1-2)Man
# Method in brief: (§1)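 Glycan array data were curated from 3228 arrays in the Consortium for Functional Glycomics database and kept only where the protein sequence was available. Glycan names were converted to IUPAC-condensed notation, and columns mapping to the same glycan were averaged. The binding signal is a within-array Z-score, averaged across arrays of the same protein sequence at different concentrations or buffers and across linkers. Negative Z-scores can be read as non-binding.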
# [2] = biological target: Gal(a1-3)Gal(b1-3)GlcNAc(b1-2)Man(a1-3)[Gal(a1-3)Gal(b1-3)GlcNAc(b1-2)Man(a1-6)]Man(b1-4)GlcNAc(b1-4)GlcNAc
# Method in brief: as §1
# [3] = biological target: Gal(a1-3)Gal(b1-3)GlcNAc(b1-3)GalNAc
# Method in brief: as §1
# [4] = biological target: Gal(a1-3)Gal(b1-3)GlcNAc(b1-6)GalNAc
# Method in brief: as §1
# [5] = biological target: Gal(a1-3)Gal(b1-3)[Fuc(a1-4)]GlcNAc(b1-2)Man(a1-3)[Gal(a1-3)Gal(b1-3)[Fuc(a1-4)]GlcNAc(b1-2)Man(a1-6)]Man(b1-4)GlcNAc(b1-4)GlcNAc
# Method in brief: as §1
# Gal(a1-3)Gal(b1-4)Glc = biological target: Gal(a1-3)Gal(b1-4)Glc
# Method in brief: as §1
# Gal(a1-3)Gal(b1-4)GlcNAc = biological target: Gal(a1-3)Gal(b1-4)GlcNAc
# Method in brief: as §1
# [6] = biological target: Gal(a1-3)Gal(b1-4)GlcNAc(b1-2)Man
# Method in brief: as §1
# [7] = biological target: Gal(a1-3)Gal(b1-4)GlcNAc(b1-2)Man(a1-3)[Gal(a1-3)Gal(b1-4)GlcNAc(b1-2)Man(a1-6)]Man(b1-4)GlcNAc(b1-4)GlcNAc
# Method in brief: as §1
# [8] = biological target: Gal(a1-3)Gal(b1-4)GlcNAc(b1-3)GalNAc
# Method in brief: as §1
# [9] = biological target: Gal(a1-3)Gal(b1-4)GlcNAc(b1-6)GalNAc
# Method in brief: as §1
# [10] = biological target: Gal(a1-3)Gal(b1-4)[Fuc(a1-3)]GlcNAc
# Method in brief: as §1
# [11] = biological target: Gal(a1-3)Gal(b1-4)[Fuc(a1-3)]GlcNAc(b1-2)Man(a1-3)[Gal(a1-3)Gal(b1-4)[Fuc(a1-3)]GlcNAc(b1-2)Man(a1-6)]Man(b1-4)GlcNAc(b1-4)GlcNAc
# Method in brief: as §1
# Gal(a1-3)GalNAc = biological target: Gal(a1-3)GalNAc
# Method in brief: as §1
# [12] = biological target: Gal(a1-3)[Gal(a1-4)]Gal(b1-4)GlcNAc
# Method in brief: as §1
# [13] = biological target: Gal(a1-4)Gal(b1-3)GlcNAc(b1-2)Man(a1-3)[Gal(a1-4)Gal(b1-3)GlcNAc(b1-2)Man(a1-6)]Man(b1-4)GlcNAc(b1-4)GlcNAc
# Method in brief: as §1
# Gal(a1-4)Gal(b1-4)Glc = biological target: Gal(a1-4)Gal(b1-4)Glc
# Method in brief: as §1
# Gal(a1-4)Gal(b1-4)GlcNAc = biological target: Gal(a1-4)Gal(b1-4)GlcNAc
# Method in brief: as §1
# [14] = biological target: Gal(a1-4)Gal(b1-4)GlcNAc(b1-2)Man(a1-3)[Gal(a1-4)Gal(b1-4)GlcNAc(b1-2)Man(a1-6)]Man(b1-4)GlcNAc(b1-4)GlcNAc
# Method in brief: as §1
# [15] = biological target: Gal(a1-4)Gal(b1-4)GlcNAc(b1-3)Gal(b1-4)Glc
# Method in brief: as §1
# Gal(a1-4)GlcNAc = biological target: Gal(a1-4)GlcNAc
# Method in brief: as §1
# Gal(a1-6)Glc = biological target: Gal(a1-6)Glc
# Method in brief: as §1
# Gal(b1-2)Gal = biological target: Gal(b1-2)Gal
# Method in brief: as §1
# Gal(b1-3)Gal = biological target: Gal(b1-3)Gal
# Method in brief: as §1
# Gal(b1-3)Gal(b1-4)GlcNAc = biological target: Gal(b1-3)Gal(b1-4)GlcNAc
# Method in brief: as §1
# [16] = biological target: Gal(b1-3)Gal(b1-4)GlcNAc(b1-2)Man(a1-3)[Gal(b1-3)Gal(b1-4)GlcNAc(b1-2)Man(a1-6)]Man(b1-4)GlcNAc(b1-4)GlcNAc
# Method in brief: as §1
# Gal(b1-3)GalNAc = biological target: Gal(b1-3)GalNAc
# Method in brief: as §1
# [17] = biological target: Gal(b1-3)GalNAc(a1-3)[Fuc(a1-2)]Gal(b1-4)Glc
# Method in brief: as §1
# [18] = biological target: Gal(b1-3)GalNAc(a1-3)[Fuc(a1-2)]Gal(b1-4)GlcNAc
# Method in brief: as §1
# Gal(b1-3)GalNAc(b1-3)Gal = biological target: Gal(b1-3)GalNAc(b1-3)Gal
# Method in brief: as §1
# [19] = biological target: Gal(b1-3)GalNAc(b1-3)Gal(a1-4)Gal(b1-4)Glc
# Method in brief: as §1
# [20] = biological target: Gal(b1-3)GalNAc(b1-4)Gal(b1-4)Glc
# Method in brief: as §1
# [21] = biological target: Gal(b1-3)GalNAc(b1-4)[Neu5Ac(a2-3)]Gal(b1-4)Glc
# Method in brief: as §1
# Gal(b1-3)GlcNAc = biological target: Gal(b1-3)GlcNAc
# Method in brief: as §1
# [22] = biological target: Gal(b1-3)GlcNAc(a1-3)Gal(b1-4)GlcNAc
# Method in brief: as §1
# [23] = biological target: Gal(b1-3)GlcNAc(a1-6)Gal(b1-4)GlcNAc
# Method in brief: as §1
# Gal(b1-3)GlcNAc(b1-2)Man = biological target: Gal(b1-3)GlcNAc(b1-2)Man
# Method in brief: as §1
# [24] = biological target: Gal(b1-3)GlcNAc(b1-2)Man(a1-3)[Gal(b1-3)GlcNAc(b1-2)Man(a1-6)]Man(b1-4)GlcNAc(b1-4)GlcNAc
# Method in brief: as §1
# [25] = biological target: Gal(b1-3)GlcNAc(b1-2)Man(a1-3)[Gal(b1-3)GlcNAc(b1-2)Man(a1-6)]Man(b1-4)GlcNAc(b1-4)[Fuc(a1-6)]GlcNAc
# Method in brief: as §1
# [26] = biological target: Gal(b1-3)GlcNAc(b1-2)Man(a1-3)[GlcNAc(b1-4)][Gal(b1-3)GlcNAc(b1-2)Man(a1-6)]Man(b1-4)GlcNAc(b1-4)GlcNAc
# Method in brief: as §1
# [27] = biological target: Gal(b1-3)GlcNAc(b1-2)[Gal(b1-3)GlcNAc(b1-6)]Man(a1-6)[Gal(b1-3)GlcNAc(b1-2)Man(a1-3)]Man(b1-4)GlcNAc(b1-4)GlcNAc
# Method in brief: as §1
# [28] = biological target: Gal(b1-3)GlcNAc(b1-3)Gal(b1-3)GlcNAc
# Method in brief: as §1
# [29] = biological target: Gal(b1-3)GlcNAc(b1-3)Gal(b1-4)Glc
# Method in brief: as §1
# [30] = biological target: Gal(b1-3)GlcNAc(b1-3)Gal(b1-4)GlcNAc
# Method in brief: as §1
# [31] = biological target: Gal(b1-3)GlcNAc(b1-3)Gal(b1-4)GlcNAc(b1-2)Man(a1-3)[Gal(b1-3)GlcNAc(b1-3)Gal(b1-4)GlcNAc(b1-2)Man(a1-6)]Man(b1-4)GlcNAc(b1-4)GlcNAc
# Method in brief: as §1
binder,measurement,setting,value
"AAL (Agrocybe aegerita), Q6WY08 (protein) MQGVNIYNISAGTSVDLAAPVTTGDIVTFFSSALNLNAGAGNPNNTTLNLFAENGAYLLHIAFRLQENVIIFNSRQPDGPWLVEQRVSDVANQFAGIDGKAMVTVFDHGDKYQVVINEKTVIQYTKQISGLTLSLSYNATEETSIFSTVVEAVTYTGLALEHHHHHH",glycan array binding signal (z-score),[1],-0.12
same,glycan array binding signal (z-score),[2],-0.119
same,glycan array binding signal (z-score),[3],-0.075
same,glycan array binding signal (z-score),[4],0.046
same,glycan array binding signal (z-score),[5],-0.122
same,glycan array binding signal (z-score),Gal(a1-3)Gal(b1-4)Glc,-0.036
same,glycan array binding signal (z-score),Gal(a1-3)Gal(b1-4)GlcNAc,0.682
same,glycan array binding signal (z-score),[6],0.637
same,glycan array binding signal (z-score),[7],7.5
same,glycan array binding signal (z-score),[8],0.152
same,glycan array binding signal (z-score),[9],-0.136
same,glycan array binding signal (z-score),[10],-0.142
same,glycan array binding signal (z-score),[11],-0.14
same,glycan array binding signal (z-score),Gal(a1-3)GalNAc,-0.15
same,glycan array binding signal (z-score),[12],-0.049
same,glycan array binding signal (z-score),[13],-0.136
same,glycan array binding signal (z-score),Gal(a1-4)Gal(b1-4)Glc,-0.147
same,glycan array binding signal (z-score),Gal(a1-4)Gal(b1-4)GlcNAc,-0.136
same,glycan array binding signal (z-score),[14],-0.136
same,glycan array binding signal (z-score),[15],-0.155
same,glycan array binding signal (z-score),Gal(a1-4)GlcNAc,-0.142
same,glycan array binding signal (z-score),Gal(a1-6)Glc,-0.145
same,glycan array binding signal (z-score),Gal(b1-2)Gal,-0.141
same,glycan array binding signal (z-score),Gal(b1-3)Gal,-0.137
same,glycan array binding signal (z-score),Gal(b1-3)Gal(b1-4)GlcNAc,-0.135
same,glycan array binding signal (z-score),[16],6.91
same,glycan array binding signal (z-score),Gal(b1-3)GalNAc,-0.148
same,glycan array binding signal (z-score),[17],-0.161
same,glycan array binding signal (z-score),[18],-0.131
same,glycan array binding signal (z-score),Gal(b1-3)GalNAc(b1-3)Gal,-0.14
same,glycan array binding signal (z-score),[19],-0.141
same,glycan array binding signal (z-score),[20],-0.128
same,glycan array binding signal (z-score),[21],-0.144
same,glycan array binding signal (z-score),Gal(b1-3)GlcNAc,-0.146
same,glycan array binding signal (z-score),[22],-0.142
same,glycan array binding signal (z-score),[23],-0.122
same,glycan array binding signal (z-score),Gal(b1-3)GlcNAc(b1-2)Man,-0.154
same,glycan array binding signal (z-score),[24],-0.155
same,glycan array binding signal (z-score),[25],-0.133
same,glycan array binding signal (z-score),[26],-0.094
same,glycan array binding signal (z-score),[27],-0.153
same,glycan array binding signal (z-score),[28],-0.153
same,glycan array binding signal (z-score),[29],-0.127
same,glycan array binding signal (z-score),[30],-0.152
same,glycan array binding signal (z-score),[31],-0.132
